Experimental data taken from the antibiotic and cytotoxicity screens of Wong et al. (2023).
This is one part of the list.

Columns and labels:
[1] = system: HSkMC (human skeletal muscle cells); assay: cytotoxicity call (relative viability < 0.9); conditions: 10 µM
[2] = system: HepG2; assay: cytotoxicity call (relative viability < 0.9); conditions: 10 µM
[3] = system: S. aureus RN4220; assay: growth inhibition call (relative growth <= 0.2); conditions: 50 µM

C[C@H](CO)N1C[C@H](C)[C@@H](CN(C)S(=O)(=O)c2ccc(F)cc2)Oc2c(NC(=O)C3CC3)cccc2C1=O
inactive: cytotoxicity call [1] | cytotoxicity call [2] | growth inhibition call [3]

O=C(N[C@H]1CC[C@H](CCNS(=O)(=O)c2ccc(F)cc2)O[C@@H]1CO)C1CC1
inactive: cytotoxicity call [1] | cytotoxicity call [2] | growth inhibition call [3]

C[C@@H]1CCCCO[C@H](CN(C)S(=O)(=O)c2ccc(Cl)cc2)[C@@H](C)CN([C@@H](C)CO)C(=O)c2cc(NC(=O)Nc3ccccc3)ccc2O1
inactive: cytotoxicity call [1] | cytotoxicity call [2] | growth inhibition call [3]

COc1ccc(NC(=O)Nc2ccc3c(c2)C(=O)N([C@H](C)CO)C[C@@H](C)[C@H](CN(C)S(=O)(=O)c2ccccc2)OCCCC[C@@H](C)O3)cc1
inactive: cytotoxicity call [1] | cytotoxicity call [2] | growth inhibition call [3]

C[C@@H]1CCCCO[C@H](CN(C)C(=O)NC2CCCCC2)[C@H](C)CN([C@@H](C)CO)C(=O)c2cc(NC(=O)Nc3ccc(F)cc3)ccc2O1
inactive: cytotoxicity call [1] | cytotoxicity call [2] | growth inhibition call [3]

C[C@H]1CN([C@@H](C)CO)C(=O)c2cccc(NC(=O)C3CC3)c2O[C@H]1CN(C)C(=O)NC1CCCCC1
inactive: cytotoxicity call [1] | cytotoxicity call [2] | growth inhibition call [3]

COCC(=O)Nc1ccc2c(c1)CC(=O)N2C
inactive: cytotoxicity call [1] | cytotoxicity call [2] | growth inhibition call [3]

CN1CCN(CCO)CC1
inactive: cytotoxicity call [1] | cytotoxicity call [2] | growth inhibition call [3]

COc1ccc(NC(=O)Nc2ccc3c(c2)[C@H]2C[C@H](CC(=O)NCc4ccncc4)O[C@@H](CO)[C@H]2O3)cc1
inactive: cytotoxicity call [1] | cytotoxicity call [2] | growth inhibition call [3]

COC(=O)c1ccc[nH]1
inactive: cytotoxicity call [1] | cytotoxicity call [2] | growth inhibition call [3]

CCNC(=O)C[C@H]1C=C[C@H](NC(=O)C2CCOCC2)[C@H](CO)O1
inactive: cytotoxicity call [1] | cytotoxicity call [2] | growth inhibition call [3]
